# In paper PMC12136788:
# The list shows a part of the results.
# B1: chr3:170361105:170361226:+|CDS|ENSG00000136603|unk|FALSE|bound_elsewhere (ssRNA)
# RNA: GGGAGUUCUACAGUCCGACGAUCAAGCUCAUUGGCCCAGUUAAAGGAAACUGGCAGUGCCUUUGAAGUGGAGCAUGAAUGCCUAGGCAAAUGUCAGGGUUUAUUUGCACCCCAGUUUUAUGUUCAGCCUGAUGCUCCGUGUAUCAACAGAGGAUUGAGCAUCA
# B2: chr22:39520512:39520623:+|5pUTR|ENSG00000128272|unk|FALSE|bound_elsewhere (ssRNA)
# RNA: GGGAGUUCUACAGUCCGACGAUCUCUAUAAAGGGCCGGCGGGCGGCCACGGCAGCCAUUUCUACUUUGCCCGCCCACAGAUGUAGUUUUCUCUGCGCGUGUGCGUUUUCCCUCCUCCCCGCCCUCAGGGUCCACGGCCACCAUCAACAGAGGAUUGAGCAUCA
# B3: chr7:101137467:101137738:+|3pUTR|ENSG00000106366|msi1|total|mutant (ssRNA)
# RNA: GGGAGUUCUACAGUCCGACGAUCGUUAAAAGAUGGUAAACCAGAUCUGUCUCCAAGACCUUGGCCUCUCCUUGGAGGACCUUCCGGUCAAACUCCCCCGUCUCCACCUGAGACCCUGGGAGAGAAGUUUGAAGCACAACUCCCCAACAGAGGAUUGAGCAUCA
# B4: chr3:73066602:73066703:+|3pUTR|ENSG00000163605|unk|FALSE|unique (ssRNA)
# RNA: GGGAGUUCUACAGUCCGACGAUCACUAUUUUGUAGAAUGAAUGUUUAUGAAGCUGAUAUGAGACCAUCUCAGAAGAACCAAGUAGGUUCCUUGACCUUUUGCUUGCUUUUCUGAACAUUGUGAAUAUUACACAUGUCUUUCUACAACAGAGGAUUGAGCAUCA
# B5: ENSG00000070961:be:win_3351|CDS|ENSG00000070961|bound_else_gene|NA|bound_elsewhere_windowed (ssRNA)
# RNA: GGGAGUUCUACAGUCCGACGAUCGAUUCGAGUGGUGAAUGCAUUUCGUAGUUCUUUAUAUGAAGGGUUAGAAAAACCGGAAUCAAGAAGUUCGAUUCACAACUUUAUGACACAUCCUGAGUUUAGGAUAGAAGAUUCAGAGCCCAACAGAGGAUUGAGCAUCA
# B6: ENSG00000070961:be:win_3751|3pUTR|ENSG00000070961|bound_else_gene|NA|bound_elsewhere_windowed (ssRNA)
# RNA: GGGAGUUCUACAGUCCGACGAUCUAUUCUUGUCUUUGGACUUCAACAGAAGACACACUUGUACGAAUGUAGAUUUAUUUUUUUAAAAAAAAAAAAGCAAAGCUUUCUGCCAGACUGAGGGUGCUUUUUGGGGGGUGGGAGAAACAACAGAGGAUUGAGCAUCA
# B7: chr12:120764159:120764260:-|3pUTR|ENSG00000157837|msi1|FALSE|unique (ssRNA)
# RNA: GGGAGUUCUACAGUCCGACGAUCACACACACAUAGAUAUAUAUGAAUAAACAAAAAUGAAAUCCUGCUAAGAUCACGCUGUGUAGCUGACAGGGGCUUGCUGUCGUUUUGAGCAUGUCGAGCAGUUUACUGUGGCUUCCUUGUCAACAGAGGAUUGAGCAUCA
# B8: ENSG00000136451:be:win_1251|CDS|ENSG00000136451|bound_else_gene|NA|bound_elsewhere_windowed (ssRNA)
# RNA: GGGAGUUCUACAGUCCGACGAUCAGUGGCAGCUGCAAUGAGCAUGAGAAGUCCAGUAAAUGUUUCAAGUGCAGUUAACAUAACCAGCCCAAUGAACAUAGGGCAUCCUGUAACUAUAACCAGUCCAUUAUCCAUGACCUCUCCCAACAGAGGAUUGAGCAUCA
# B9: ENSG00000168936:stop:overlap|stop_codon|ENSG00000168936|stop_codon|NA|stop_codon (ssRNA)
# RNA: GGGAGUUCUACAGUCCGACGAUCGUGUGGCCAGCACCAACCCUGCUGUGCAGGCCUUUGACAUCUGGAGCUGGAGGCCUGCAUAGGCUGCAUGCAGACACGUGCCAGCGUGAAGCUGGUGAAGACCUGCCAGGAGGCAGCCACCAACAGAGGAUUGAGCAUCA
# B10: chrX:53432280:53432385:-|CDS|ENSG00000072506|unk|total|mutant (ssRNA)
# RNA: GGGAGUUCUACAGUCCGACGAUCUGAGAAGGAUGUGCAAACAGCUCUGGCUCCCGCAAAAGGAAAGUUUGGCCGUGUGGAUGCCGCUGUCAACUGUGCAGGCAUCGCGGUGGCCCGCAAGACGUACAACUUAAAGAAGGGCCACAACAGAGGAUUGAGCAUCA
# B11: chr2:135840511:135840612:-|3pUTR|ENSG00000076003|msi1|FALSE|unique (ssRNA)
# RNA: GGGAGUUCUACAGUCCGACGAUCGCUUCAGCACUUCCUUUGGUGUGUUUCCUGUCCCAGUGAAGUUGGAACCAAAUAAUGUGUAGUCUCUAUAACCAAUACCUUUGUUUUCAUGUGUAAGAAAAGGCCCAUUACUUUUAAGGUCAACAGAGGAUUGAGCAUCA
# B12: chr6:36232219:36232320:+|3pUTR|ENSG00000096070|unk|FALSE|unique (ssRNA)
# RNA: GGGAGUUCUACAGUCCGACGAUCGCUAGGGAAGGACAUGGUGUAUAUAAUUGUAAAAUACUGUUCUAAAUUAUUCAGGCCUAUAGUUUCCAUUACUGGAGUCCUCCAUUGUGUGGCCACACAGUGUCGUUGAUUUAAAGGAGCCAACAGAGGAUUGAGCAUCA
# B13: chr11:134382709:134383006:-|CDS|ENSG00000109956|control|control|control (ssRNA)
# RNA: GGGAGUUCUACAGUCCGACGAUCCGGGGCAGGGAAGGUGGUCGGCUGGAAGACGGUGUUUGACCCCCACCGGCCAUUUGCAAUAGACAUGGCUGGAUUUGCCGUCAACCUGCGGCUCAUUCUGCAGCGAAGCCAGGCCUACUUCAACAGAGGAUUGAGCAUCA
# B14: chr5:173316791:173316892:-|3pUTR|ENSG00000113739|msi1|FALSE|unique (ssRNA)
# RNA: GGGAGUUCUACAGUCCGACGAUCGGAAACCUUAUACCCAGAGGAAAAUACACACCUGGGGAGUACAUUUGACAAAUUUCCCUUAGGAUUUCGUUAUCUCACCUUGACCCUCAGCCAAGAUUGGUAAAGCUGCGUCCUGGCGAUCAACAGAGGAUUGAGCAUCA
# B15: chr7:139028693:139028797:-|CDS|ENSG00000146858|unk|FALSE|unique (ssRNA)
# RNA: GGGAGUUCUACAGUCCGACGAUCUUUCAGAUAAUCUCCACCUACAAGCAUAUGAAGCUGCACAAGAUGCUUGAAAAUACAGGUAGGAAUAUCCAAGAAGGACAGAGAAGUAUCAGCGAUAUGGUUUUGCGAUGCUUCACUGUGCAACAGAGGAUUGAGCAUCA
# B16: chr1:62864655:62864756:+|3pUTR|ENSG00000125703|unk|FALSE|unique (ssRNA)
# RNA: GGGAGUUCUACAGUCCGACGAUCUUUGUUAACUGUGAUAUGCAUACACUUAUAUAAGCAGAAUUAUGAGUUAAAGUAAUACUUAGCAAUAUGAUUUUAUAAUGGCUCCUCAUUAUGCUUGCUGUUGAACCUUUUAUGAGGAGUCAACAGAGGAUUGAGCAUCA
# B17: chr1:167421552:167421653:+|3pUTR|ENSG00000143190|unk|FALSE|unique (ssRNA)
# RNA: GGGAGUUCUACAGUCCGACGAUCUUUUCUUCUAACCUUAUUCAUUAAGUAGUUCCUUGUUUUGGCCCUUCUACUCUUGGCCUUAGCUAAAAGCAGUAAAUGUGAGUGAAUUUUAUGUUGAUUAUGUCACCUGGAUCUCCUUUCCAACAGAGGAUUGAGCAUCA
# B18: chr8:52110837:52113338:-|three_prime_utr|ENSG00000147488|control|control|control (ssRNA)
# RNA: GGGAGUUCUACAGUCCGACGAUCCCCCGGAAUGCAAAGCUCUACUGGAAAGUAUCAAACAGGCAGUGAAGGGUAUCCAUGUGUAGGAUCACAGCGCUGCCGGGCAACAGAAGUUACCAACAGCAGUAAACUCCAGAUGGAUCUCAACAGAGGAUUGAGCAUCA
# B19: chr20:57651677:57651767:-|3pUTR|ENSG00000124225|msi1_unk|total|mutant (ssRNA)
# RNA: GGGAGUUCUACAGUCCGACGAUCGUUGAGCUGUGUCUUGAAGGCAAAAGAAAAAAAAUUUCUACAGCCGUCUUUCUUGUUUCCCGUUGAGCUGCGUGCGUGAAUGCUUAUUUUCUUUUGUUUAUGAUAAUUUCACUUAACUUUCAACAGAGGAUUGAGCAUCA
# B20: chr11:56232108:56233062:-|CDS|ENSG00000181718|control|control|control (ssRNA)
# RNA: GGGAGUUCUACAGUCCGACGAUCGACAAUCCUCUUCAUGUAUGUGAGACCAAGUUCCAGCUAUGCUUCGGACCAUGACAUGAUAGUGUCAAUAUUUUACACCAUUGUGAUUCCCUUGCUGAAUCCCGUCAUCUACAGUUUGAGCAACAGAGGAUUGAGCAUCA
# B21: chr1:93353930:93354034:+|CDS|ENSG00000117505|unk|FALSE|unique (ssRNA)
# RNA: GGGAGUUCUACAGUCCGACGAUCUUUGGGAUUUGGCUCUUACAUCAGUGAAGUAAAAGAAGUCUUGCAAGAGUGUAAAACAGUAGCAUUAAAAAGAAGAAAGGCCAGUUCUCGUUUGGAAAACCUUGGCAUUCCUGAAGAAGACAACAGAGGAUUGAGCAUCA
# B22: chr1:1785892:1785993:-|3pUTR|ENSG00000078369|msi1|FALSE|unique (ssRNA)
# RNA: GGGAGUUCUACAGUCCGACGAUCUUUACUCUUAGAAUCGCAUGCUGUAGAAAUGCUCAAAAGUGCAUAUGGGACUCAGUCCUUAGGUGUUCUUUUUCUUUUAAGAAAUAACCUCUUACAGUUGUAACCAUUGCGGCUCUGUCCCAACAGAGGAUUGAGCAUCA
# Target: MSI1 full-length (mouse, UniProt Q61474 1-362)
# Sequence of UniProt Q61474 (Q61474 whole entry): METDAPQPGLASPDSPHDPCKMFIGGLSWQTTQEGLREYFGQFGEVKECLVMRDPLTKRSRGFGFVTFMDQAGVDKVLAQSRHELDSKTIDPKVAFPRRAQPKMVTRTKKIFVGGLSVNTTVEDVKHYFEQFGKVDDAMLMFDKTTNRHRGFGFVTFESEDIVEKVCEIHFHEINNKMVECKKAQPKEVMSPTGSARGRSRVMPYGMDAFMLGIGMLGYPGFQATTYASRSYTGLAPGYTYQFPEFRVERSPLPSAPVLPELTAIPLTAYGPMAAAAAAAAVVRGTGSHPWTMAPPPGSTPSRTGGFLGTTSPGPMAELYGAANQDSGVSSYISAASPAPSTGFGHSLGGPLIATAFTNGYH
# Experiment: nsRBNS (natural sequence RNA bind-n-seq); RBNS binding buffer (assumed for nsRBNS): 25 mM Tris pH 7.5, 150 mM KCl, 3 mM MgCl2, 0.01% Triton X-100, 500 ug/ml BSA, 20 U/ml SUPERase-In, 4 C; UNK is unkempt and MSI1 is Musashi-1; names of the RNAs are library labels; protein concentration not given here; high values mean tight binding
row,Binder,binding signal [enrichment R]
1,B1,0.332
2,B2,0.692
3,B3,0.337
4,B4,0.282
5,B5,0.984
6,B6,0.889
7,B7,1.84
8,B8,0.559
9,B9,3.64
10,B10,0.359
11,B11,0.858
12,B12,1.86
13,B13,0.563
14,B14,0.381
15,B15,0.218
16,B16,0.957
17,B17,3.1
18,B18,0.319
19,B19,0.725
20,B20,0.207
21,B21,3.44
22,B22,0.395
